# From PubChem BioAssay AID1832 (Broad Institute, 2009)
# Hit rate of the full screen: of about 300,000 compounds, about 1,100 (0.37%) were called active. This list was built around the results that the source calls inconclusive (neither active nor inactive); the mix of calls is not that of the screen.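 Rule for the calls: active = inhibition past about -25% in most replicates, and total fluorescence under double the plate's negative control median (limit read from the data); inconclusive = replicates evenly split on the limit, or fluorescence at least double controls; inactive = too little inhibition in most replicates.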
# Target: Zinc finger protein mex-5 (Caenorhabditis elegans) (UniProt Q9XUB2)
# UniProt Q9XUB2, sequence (Q9XUB2 whole entry, looked up): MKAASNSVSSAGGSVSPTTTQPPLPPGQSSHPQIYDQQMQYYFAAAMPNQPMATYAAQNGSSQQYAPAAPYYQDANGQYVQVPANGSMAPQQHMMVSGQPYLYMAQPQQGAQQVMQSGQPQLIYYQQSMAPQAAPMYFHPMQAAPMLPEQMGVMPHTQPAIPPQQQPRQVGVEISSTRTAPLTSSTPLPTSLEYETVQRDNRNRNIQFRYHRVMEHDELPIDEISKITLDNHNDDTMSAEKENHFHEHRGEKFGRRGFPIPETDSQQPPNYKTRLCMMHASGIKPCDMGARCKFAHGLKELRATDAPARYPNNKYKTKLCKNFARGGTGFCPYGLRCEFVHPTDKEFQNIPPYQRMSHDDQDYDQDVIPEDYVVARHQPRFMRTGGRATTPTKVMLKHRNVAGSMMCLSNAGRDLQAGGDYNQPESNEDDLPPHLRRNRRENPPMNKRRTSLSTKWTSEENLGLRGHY
# Test: MEX-5 zinc finger RNA-binding disruptors – biochemical, C. elegans, fluorescence polarization, MLPCN library, primary screen (AID 1832);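 note: 0% = DMSO and -100% = 5 µM competing unlabeled TCR2 RNA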
# Conditions: MEX-5/FITC-TCR2 RNA binding, at 10 µM, hits give low values
row,SMILES,activity score (negative = inhibition of binding)
1,COc1ccc(C(=O)Nc2ccc(S(=O)(=O)Nc3nccc(C)n3)cc2)cc1[N+](=O)[O-],inactive: -0.679%
2,Nc1cccc2c1C(=O)N(Cc1nnc(-c3ccccc3Br)o1)C2=O,inconclusive: -19.1%
3,Cc1ccc(NC(=O)c2cc3ccccc3oc2=O)cc1S(=O)(=O)N(C)C,inconclusive: -12.8%
4,COc1ccc(C2C(C(=O)O)c3ccccc3C(=O)N2C)cc1Br (stereo not drawn),inactive: 0.565%
5,O=C1COc2ccc(C(=O)COC(=O)CCSc3ccccc3)cc2N1,inactive: -2.25%
6,COC(=O)Cn1ncc(N2CC(C)OC(C)C2)c(Cl)c1=O (stereo not drawn),inactive: -1.42%
7,CN1/C(=C\C=C(/C#N)C(=O)Nc2ccc(Cl)cc2)C(C)(C)c2ccccc21,inconclusive: -0.787%
8,O=c1[nH][nH]c2cc(=O)n(-c3ccc(Cl)cc3)nc12,active: -32.1%
9,N=c1c(S(=O)(=O)c2ccc(Cl)cc2)cc2c(=O)n3ccccc3nc2n1Cc1cccnc1,inconclusive: -93.1% [fluorescent]
10,CCN1C(=C(C#N)C#N)C=Cc2ccccc21,inconclusive: -18.5%
11,CCOc1ccc(Cn2c3ccc(OC)cc3c3nc4ccccc4nc32)cc1OC,inconclusive: -22.4%
12,CC(C)COc1ccc(/C=C2/Sc3ccccc3C2=O)cc1,inconclusive: -9.77%
13,COc1ccc(N(CC(=O)N2CCN(c3ccc(Cl)cc3)CC2)S(=O)(=O)c2c(C)n[nH]c2C)cc1,inactive: 2.45%
14,CC1CCN(C(=O)CCN2C(=O)/C(=C/c3cccs3)SC2=S)CC1,inconclusive: -15.8%
15,CC(C)OCCCn1c(=NC(=O)c2cccs2)c(C#N)cc2c(=O)n3ccccc3nc21,inconclusive: -9.12%
16,CCN1CCN(Cc2c(O)ccc3c2O/C(=C\C=C\c2ccccc2OC)C3=O)CC1,inconclusive: 3.88% [fluorescent]
17,CC(=O)OCCn1c2nc(=O)[nH]c(=O)c-2nc2cc(C)c(C)cc21,inconclusive: -161% [fluorescent]
18,COc1ccccc1NC(=O)c1c(N=Cc2ccccc2O)cnn1C,inactive: 1.43%
19,CC(=O)Oc1cc(OC(C)=O)c2c(=O)c(-c3ccc4c(c3)OCCCO4)c(C)oc2c1,inactive: 0.765%
20,CCCCCn1nc(-c2ccccc2)c2nc3ccccc3nc21,inconclusive: -45% [fluorescent]
21,CCN(CC)c1ccc2cc(C=O)c(=O)oc2c1,inconclusive: 22% [fluorescent]
22,COc1ccccc1N1CCN(C(=O)c2cc(-c3ccc(C)cc3)on2)CC1,inactive: 1.33%

row,SMILES,activity score (negative = inhibition of binding)
1,COc1ccc(N=C(C)c2sc3ccccc3c2O)cc1,inconclusive: -23.7%
2,Cn1c2ccccc2c2nnc(SCC(N)=O)nc21,inactive: -2.92%
3,C=CCN1C=CC(=CC=C(C#N)C#N)C=C1,inconclusive: 53.3% [fluorescent]
4,CCOC(=O)N1CCN(C(=O)c2cc3n(n2)C(C(F)(F)F)CC(c2ccc4c(c2)OCO4)N3)CC1 (stereo not drawn),inactive: 1.44%
5,NC(=O)CC(NC(=O)Cc1ccc(Cl)cc1)c1ccc(NC2CCCCCC2)c([N+](=O)[O-])c1 (stereo not drawn),inconclusive: -17.6%
6,CC(C)NC(=O)/C(C#N)=C\c1ccc(N(C)C)o1,inconclusive: 57.3% [fluorescent]
7,Nc1ccc2nc(-c3cccc(-c4nc5ccc(N)cc5[nH]4)n3)[nH]c2c1,inconclusive: -18.5%
8,Cc1ccc(-c2cn3nc(-c4ccccc4)c(-c4ccccc4)nc3n2)cc1,inconclusive: -107% [fluorescent]
9,O=C(NN1C(=O)c2ccccc2NC1c1ccccn1)c1ccc([N+](=O)[O-])cc1 (stereo not drawn),active: -43.5%
10,COc1ccc(C(=O)NNC(=O)c2cnccn2)cc1[N+](=O)[O-],active: -64.4%
11,CCC(C)n1c(=N)c(C#N)cc2c(=O)n3ccccc3nc21 (stereo not drawn),inconclusive: 113% [fluorescent]
12,Cc1cc2nc3ccc(N(C)C)cc3nc2cc1N,active: -28%
13,O=C(O)c1ccc2c(c1)C(=O)/C(=C\c1ccco1)C2=O,inconclusive: -24.3%
14,CCNC(=O)C1=C(O)c2sccc2N(C)S1(=O)=O,inactive: 2.08%
15,Nc1ncnc(NNC(=O)CNC(=O)c2c(F)cccc2Cl)c1[N+](=O)[O-],active: -65.7%
16,Cc1ccccc1OCC(=O)Nc1ccc2c(c1)C(=O)c1ccccc1C2=O,inconclusive: -20.6%
17,CC(NC(=O)/C=C/c1ccco1)c1nc2ccccc2n1Cc1cccc(Cl)c1 (stereo not drawn),inactive: 2.14%
18,CN(C)CCn1nnc2c(=O)oc3ccccc3c21,inactive: -0.242%
19,CCC(=O)Nc1sc2c(c1C(N)=O)CCN(C(C)=O)C2,inactive: 1.75%
20,C#CCN1C(=O)S/C(=C\c2ccc(N3CCOCC3)cc2C)C1=O,inconclusive: -25%
21,O=C(NC1C=CS(=O)(=O)C1)c1sc2ccccc2c1Cl (stereo not drawn),inactive: 1.13%
